From the supplement of paper PMC4604168 (melanoma cell lines)
Some of the results follow. Most values come without repeats; read them as rough.

What was measured:
Assay in all cases: cell count relative to DMSO control; melanoma cells; higher = more viable cells
Settings in all cases: library dose: low library concentration; 72 h
MZ2-MEL = system: MZ2-MEL
MeWo = system: MeWo
RPMI7951 = system: RPMI7951
RVH-421 = system: RVH-421
SkMel28 = system: SkMel28
SkMel30 = system: SkMel30
UACC62 = system: UACC62
WM115 = system: WM115
WM1716 = system: WM1716
WM1745 = system: WM1745
WM3526 = system: WM3526
WM3619 = system: WM3619
WM451Lu = system: WM451Lu
SkMel2 = system: SkMel2
SkMel5 = system: SkMel5
UACC257 = system: UACC257
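Also: cell number obtained by counting DAPI-stained nuclei in high-throughput microscope images with image analysis software, screen run in 1,536-well plates.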

| SMILES | cell count (MZ2-MEL) [%] | cell count (MeWo) [%] | cell count (RPMI7951) [%] | cell count (RVH-421) [%] | cell count (SkMel28) [%] | cell count (SkMel30) [%] | cell count (UACC62) [%] | cell count (WM115) [%] | cell count (WM1716) [%] | cell count (WM1745) [%] | cell count (WM3526) [%] | cell count (WM3619) [%] | cell count (WM451Lu) [%] | cell count (SkMel2) [%] | cell count (SkMel5) [%] | cell count (UACC257) [%] |
| --- | --- | --- | --- | --- | --- | --- | --- | --- | --- | --- | --- | --- | --- | --- | --- | --- |
| Cc1cc(Nc2cc(N3CCN(C)CC3)nc(Sc3ccc(NC(=O)C4CC4)cc3)n2)n[nH]1 [Tozasertib] + O=C(O)c1ccc2c(c1)nc(Nc1cccc(Cl)c1)c1ccncc12 [CX4945] (first compound 0.006 µM, partner dose 0.4 µM) | 87.3 | 87.8 | 95.5 | 83 | 86.9 | 85.7 | 88.9 | 101 | 87.6 | 89.2 | 81.1 | 86.9 | 101 | – | – | – |
| Cc1cc(Nc2cc(N3CCN(C)CC3)nc(Sc3ccc(NC(=O)C4CC4)cc3)n2)n[nH]1 [Tozasertib] + C[C@]1(O)C[C@@H](c2nc(-c3ccc4ccc(-c5ccccc5)nc4c3)c3c(N)nccn32)C1 [OSI906] (first compound 0.006 µM, partner dose 0.4 µM) | 92.6 | 84.6 | 101 | 97.1 | 86.8 | 84.6 | 88.4 | 90.6 | 75.8 | 85.7 | 90.6 | 97.1 | 90.9 | 91.9 | – | – |
| N#CC[C@H](C1CCCC1)n1cc(-c2ncnc3[nH]ccc23)cn1 [ruxolitinib] + CNC(=O)c1cc(Oc2ccc(NC(=O)Nc3ccc(Cl)c(C(F)(F)F)c3)cc2)ccn1 [sorafenib] (first compound 1 µM, partner dose 0.4 µM) | 106 | 97 | 98.7 | 133 | 105 | 112 | – | – | 107 | 105 | 101 | 118 | 140 | 107 | – | – |
| N#CC[C@H](C1CCCC1)n1cc(-c2ncnc3[nH]ccc23)cn1 [ruxolitinib] + C=CCNC1=C2C[C@@H](C)C[C@H](OC)[C@H](O)[C@@H](C)/C=C(\C)[C@H](OC(N)=O)[C@@H](OC)/C=C\C=C(/C)C(=O)NC(=CC1=O)C2=O [Tanespimycin] (first compound 1 µM, partner dose 0.002 µM) | 105 | 95.3 | 86.9 | 91.3 | 117 | 91 | 88.9 | – | 92 | 74.3 | 92.1 | 64.1 | 102 | 88.3 | – | – |
| N#CC[C@H](C1CCCC1)n1cc(-c2ncnc3[nH]ccc23)cn1 [ruxolitinib] + OCc1c[nH]c2ccccc12 [Indole-3-carbinol] (first compound 1 µM, partner dose 0.8 µM) | 98.3 | 94 | 93.8 | 96.7 | 95.5 | 91.5 | 100 | 97.8 | 97 | 89.3 | 95.7 | 80.3 | 94.3 | 100 | – | – |
| N#CC[C@H](C1CCCC1)n1cc(-c2ncnc3[nH]ccc23)cn1 [ruxolitinib] + OCCn1cc(-c2cnc3nnn(Cc4ccc5ncccc5c4)c3n2)cn1 [PF04217903] (first compound 1 µM, partner dose 1 µM) | – | 87.1 | 118 | 109 | 103 | 96.4 | – | 89.1 | 112 | 87.8 | 88.1 | 109 | 102 | 109 | 104 | 103 |
| N#CC[C@H](C1CCCC1)n1cc(-c2ncnc3[nH]ccc23)cn1 [ruxolitinib] + Cn1sc(=O)n(Cc2ccccc2)c1=O [TDZD-8] (first compound 1 µM, partner dose 0.4 µM) | – | 93.1 | 90.5 | 84 | 118 | 101 | 106 | 102 | 84.2 | 105 | 105 | 95 | 113 | – | – | – |
| CC[C@]1(O)C[C@H]2CN(CCc3c([nH]c4ccccc34)[C@@](C(=O)OC)(c3cc4c(cc3OC)N(C=O)[C@H]3[C@@](O)(C(=O)OC)[C@H](OC(C)=O)[C@]5(CC)C=CCN6CC[C@]43[C@@H]65)C2)C1 [vincristine] + O=C1NC(=O)/C(=C/c2ccc(-c3ccc(F)cc3O)o2)S1 [AS252424] (first compound 0.0001 µM, partner dose 1 µM) | – | 83.7 | 67.5 | 62 | 83.8 | 55.9 | 67 | 60 | 41.7 | 85.4 | 75.4 | 93.3 | 62.7 | 100 | 95.2 | 80.4 |
| CC[C@]1(O)C[C@H]2CN(CCc3c([nH]c4ccccc34)[C@@](C(=O)OC)(c3cc4c(cc3OC)N(C=O)[C@H]3[C@@](O)(C(=O)OC)[C@H](OC(C)=O)[C@]5(CC)C=CCN6CC[C@]43[C@@H]65)C2)C1 [vincristine] + NC(=O)c1ccc(N(C(N)=O)c2c(F)cccc2F)nc1-c1ccc(F)cc1F [VX702] (first compound 0.0001 µM, partner dose 0.4 µM) | 97 | 88.7 | 61.1 | 72.2 | 74.1 | 69.3 | 79.7 | 69.2 | 60.9 | 94.2 | 85.5 | 47 | 48.8 | – | – | – |
| N#CC[C@H](C1CCCC1)n1cc(-c2ncnc3[nH]ccc23)cn1 [ruxolitinib] + COc1ccc(C2=N[C@@H](c3ccc(Cl)cc3)[C@@H](c3ccc(Cl)cc3)N2C(=O)N2CCNC(=O)C2)c(OC(C)C)c1 [Nutlin-3] (first compound 1 µM, partner dose 0.1 µM) | 112 | 113 | 124 | 94.2 | – | – | 121 | 99.4 | 119 | 109 | 111 | 133 | 133 | 106 | – | – |
| N#CC[C@H](C1CCCC1)n1cc(-c2ncnc3[nH]ccc23)cn1 [ruxolitinib] + C[C@]1(c2nc3c(C(N)=O)cccc3[nH]2)CCCN1 [Veliparib] (first compound 1 µM, partner dose 1.4 µM) | 100 | 90.4 | 99.5 | 98.8 | 106 | 98.5 | – | 103 | 93.5 | 87.1 | 126 | 94.8 | 120 | – | – | – |
| N#CC[C@H](C1CCCC1)n1cc(-c2ncnc3[nH]ccc23)cn1 [ruxolitinib] + C[C@@H]1CCN(C(=O)CC#N)C[C@@H]1N(C)c1ncnc2[nH]ccc12 [CP690550] (first compound 1 µM, partner dose 1 µM) | 113 | 93.9 | – | 125 | 101 | 103 | 117 | 130 | 116 | 98.2 | 112 | 105 | 111 | 120 | 99.1 | 88.7 |
| CC[C@]1(O)C[C@H]2CN(CCc3c([nH]c4ccccc34)[C@@](C(=O)OC)(c3cc4c(cc3OC)N(C=O)[C@H]3[C@@](O)(C(=O)OC)[C@H](OC(C)=O)[C@]5(CC)C=CCN6CC[C@]43[C@@H]65)C2)C1 [vincristine] + COC(=O)c1sccc1S(=O)(=O)Nc1ccc(Nc2ccccc2)cc1OC [GSK0660] (first compound 0.0001 µM, partner dose 1 µM) | – | 72.6 | 46.9 | 68.5 | 58 | 56.1 | 53 | 44.5 | 42.5 | 82.1 | 58.5 | 58.2 | 58.7 | 72.8 | 76.1 | 53.2 |
| N#CC[C@H](C1CCCC1)n1cc(-c2ncnc3[nH]ccc23)cn1 [ruxolitinib] + C=CCn1c(=O)c2cnc(Nc3ccc(N4CCN(C)CC4)cc3)nc2n1-c1cccc(C(C)(C)O)n1 [MK1775] (first compound 1 µM, partner dose 0.02 µM) | – | 88.3 | 95.3 | 127 | 95.2 | 80.6 | 91.5 | 88.2 | 94.5 | 78.6 | 97 | 117 | 69.1 | – | 83.3 | 84.3 |
| CC[C@]1(O)C[C@H]2CN(CCc3c([nH]c4ccccc34)[C@@](C(=O)OC)(c3cc4c(cc3OC)N(C=O)[C@H]3[C@@](O)(C(=O)OC)[C@H](OC(C)=O)[C@]5(CC)C=CCN6CC[C@]43[C@@H]65)C2)C1 [vincristine] + CC(=O)O[C@@]12CO[C@@H]1C[C@H](O)[C@@]1(C)C(=O)[C@H](O)C3=C(C)[C@@H](OC(=O)[C@H](O)[C@@H](NC(=O)OC(C)(C)C)c4ccccc4)C[C@@](O)([C@@H](OC(=O)c4ccccc4)[C@H]21)C3(C)C [Docetaxel] (first compound 0.0001 µM, partner dose 0.0001 µM) | – | 42.3 | 42.2 | 74.6 | 45.8 | 39.6 | 38 | 47 | 34.6 | 63.8 | 53.7 | 54 | 57.5 | 45.4 | – | – |
| Cc1cc(Nc2cc(N3CCN(C)CC3)nc(Sc3ccc(NC(=O)C4CC4)cc3)n2)n[nH]1 [Tozasertib] + Nc1cccc2c1CN(C1CCC(=O)NC1=O)C2=O [lenalidomide] (first compound 0.006 µM, partner dose 1 µM) | 98.5 | 83.8 | 113 | 115 | 85 | 88.6 | 106 | 83.5 | 93.1 | 81.7 | 92.5 | 95.6 | 104 | – | – | – |
| N#CC[C@H](C1CCCC1)n1cc(-c2ncnc3[nH]ccc23)cn1 [ruxolitinib] + CO[C@H]1C[C@@H]2CC[C@@H](C)[C@@](O)(O2)C(=O)C(=O)N2CCCC[C@H]2C(=O)O[C@H]([C@H](C)C[C@@H]2CC[C@@H](OCCO)[C@H](OC)C2)CC(=O)[C@H](C)/C=C(\C)[C@@H](O)[C@@H](OC)C(=O)[C@H](C)C[C@H](C)/C=C/C=C/C=C/1C [everolimus] (first compound 1 µM, partner dose 0.02 µM) | 78.3 | 74.5 | 76.5 | 82.9 | 69.6 | 76.5 | 89 | 89.8 | 74.2 | 81.4 | 82.9 | 74.5 | 70.3 | – | – | – |
| Cc1cc(Nc2cc(N3CCN(C)CC3)nc(Sc3ccc(NC(=O)C4CC4)cc3)n2)n[nH]1 [Tozasertib] + Cc1cc(N2CCOCC2)cc2[nH]c(-c3c(NC[C@@H](O)c4cccc(Cl)c4)cc[nH]c3=O)nc12 [BMS536924] (first compound 0.006 µM, partner dose 0.2 µM) | – | 91.9 | 86.4 | 107 | 84.8 | 103 | 96.5 | 94.9 | 96.4 | 79.5 | 90.7 | 93.5 | 94.8 | – | 92.4 | 82.1 |
| N#CC[C@H](C1CCCC1)n1cc(-c2ncnc3[nH]ccc23)cn1 [ruxolitinib] + c1cc(-c2cnn3cc(-c4ccc(OCCN5CCCCC5)cc4)cnc23)ccn1 [Dorsomorphin] (first compound 1 µM, partner dose 0.4 µM) | – | 90.9 | 109 | 112 | 106 | 95.1 | 87.3 | 118 | 89 | 86.7 | 100 | 112 | 88.4 | – | 87.3 | 99.7 |
| N#CC[C@H](C1CCCC1)n1cc(-c2ncnc3[nH]ccc23)cn1 [ruxolitinib] + Cn1cc(/C=C2\C(=O)Nc3cccnc32)c2ccccc21 [GW441756] (first compound 1 µM, partner dose 0.4 µM) | 105 | – | 82.1 | 107 | 138 | 112 | 106 | 101 | 117 | 97.9 | 114 | 104 | 106 | – | 91.6 | 83 |
| N#CC[C@H](C1CCCC1)n1cc(-c2ncnc3[nH]ccc23)cn1 [ruxolitinib] + Cn1nnc2c(C(N)=O)ncn2c1=O [temozolomide] (first compound 1 µM, partner dose 2 µM) | 100 | 98.9 | 99.9 | – | 96.5 | 115 | 95 | 116 | 91.2 | 91.9 | 102 | 106 | 104 | 106 | – | – |
| N#CC[C@H](C1CCCC1)n1cc(-c2ncnc3[nH]ccc23)cn1 [ruxolitinib] + CCN(CC)CCCCNc1ncc2cc(-c3cc(OC)cc(OC)c3)c(NC(=O)NC(C)(C)C)nc2n1 [PD173074] (first compound 1 µM, partner dose 0.1 µM) | – | 108 | 118 | 106 | 121 | 96.7 | 114 | 111 | 108 | 104 | 107 | – | 121 | 100 | 116 | 142 |
